# The list shows a part of the results.
# Tested on: T1, C. trachomatis L2/434/Bu expressing GFP (CTL2-GFP)
# T1 construct: L2/434/Bu GFP intracellular growth in HeLa cells
# Set-up: species or system HeLa; C. trachomatis total inclusion area by high-content imaging, normalised to DMSO
# Settings: total inclusion area; 28.5 h, 10 µM; inhibitor
# Procedure, shortened: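 High-content images of fixed, Hoechst-stained infected cultures supply inclusion area and count (growth) plus nuclei number (viability), complementing bulk GFP/resorufin fluorescence. MIC determination is unchanged from the primary assay.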
row,SMILES,% of control remaining
1,Fc1cccc(C2NC(=S)NC3=C2N2CCC3CC2)c1 (centres unmarked) [CBK288503],86.8744
2,Cc1ccc(N(CC(=O)NCC2CCCO2)S(C)(=O)=O)cc1 (centres unmarked) [CBK058709],73.3145
3,CCCCC(c1cccnc1)N(C)C(=O)c1cc(CC)[nH]c(=O)c1 (centres unmarked) [CBK307216],100.156
4,Cc1cc2ncn(CC(=O)NC3Cc4ccccc4C3)c2cc1C [CBK200261],0
5,CC(=O)N1CCc2nc(CC3CC3)nc(NCCn3ccnn3)c2CC1 [CBK306933],10.1306
6,Nc1ncnc(NCCCN2CCOCC2)c1[N+](=O)[O-] [CBK267267],98.7421
7,Cc1ccc(NS(=O)(=O)c2ccc(OCC(=O)Nc3ccccc3C(F)(F)F)cc2)cc1 [CBK269120],117.027
8,NC(=O)C1CCN(C2CC(=O)NC2=O)CC1 (centres unmarked) [CBK263290],102.846
9,Cc1nc2nc(N)nn2c(C)c1CCC(=O)NCCc1ccccc1 [CBK304989],59.0833
10,O=C(Nc1ccccc1)c1ccc(-c2ccccc2)cc1 [CBK261346],98.9579
11,Cc1cc(C(=O)N(CCC#N)Cc2cccs2)no1 [CBK057316],90.24
12,CC(=O)Nc1ccc(C(=O)CSc2nc(-c3ccccc3)c(-c3ccccc3)o2)cc1 [CBK266168],103.455
13,O=c1[nH]c2ncc(-c3ccoc3)nc2n1C1CCOCC1 [CBK064973],106.736
14,CCN(CC)Cc1cc(C(C)(C)C)oc1C(=O)O [CBK266013C],117.023
15,CCCn1cc(C(=O)NCC2CCN(c3ccccc3F)C2)c(C)n1 (centres unmarked) [CBK304634],35.1272
16,CS(=O)(=O)Nc1cc2ccccc2c(-c2ccc(OCc3ccccc3)c(F)c2)n1 [CBK073785],83.3699
17,CN(C)c1nc(NCc2ccccc2)nc(SCC(=O)Nc2ccc(Cl)c(Cl)c2)n1 [CBK267289],83.5886
18,COc1ccc(CCNC(=O)N2CCCC(C(=O)O)C2)cc1 (centres unmarked) [CBK161367],21.9264
19,O=c1cc2ncc(-c3ccncc3)cn2[nH]1 [CBK011300],61.0143
20,Cc1cccc(NC(=O)c2cnc3scc(C)n3c2=O)c1 [CBK287453],100.36
21,COc1nccnc1OC1CCN(CCOc2ccccc2)CC1 [CBK084260],69.4148
22,COc1ccccc1CN(CCCn1ccnc1)Cc1cccn1C [CBK283160],94.6657
23,Cc1ccccc1NC(=O)N1CCC2(CC1)NCCc1c2[nH]c2ccc(O)cc12 [CBK046904],108.819
24,NC(=O)c1c(NC(=O)/C=C/c2c(F)cccc2Cl)sc2c1CCCCCC2 [CBK262631],111.233
25,Cc1ccc(S(=O)(=O)NC[C@H]2CC[C@H](C(=O)O)CC2)cc1 [CBK286706],86.012
26,CC(=O)NCCn1cc2c(n1)[C@H]1CN(C(=O)C(C)(C)C)C[C@H]1CC2 [CBK282168],128.925
27,COc1ccc(CN2CCNC(=O)C2CC(=O)O)cc1OC (centres unmarked) [CBK269991],73.6699

row,SMILES,% of control remaining
1,CCN(CC)C(=O)C1CCCN(C(=O)NCCOC)C1 (centres unmarked) [CBK156129],77.1671
2,O=c1c2ccccc2nc2n1CCN(Cc1ccc(F)cc1)CC2 [CBK284814],95.606
3,Cc1cccc(C(=O)Oc2ccc(-n3ccnc3)cc2)c1 [CBK090137],92.7687
4,CC(=O)N1C[C@H]2CCCN(S(=O)(=O)c3ccc(Cl)s3)[C@H]2C1 [CBK285293],98.4002
5,Cc1nc(S(=O)(=O)CCn2cccn2)n(C2CCCC2)c1C [CBK305138],106.401
6,Cc1ccc2c(c1)N(CCO)/C(=C/c1sc3ccccc3[n+]1CCCS(=O)(=O)[O-])S2 [CBK293965],64.3351
7,COc1ccc(-c2nnc3ccc(SCC(=O)N4CCCC4)nn23)cc1OC [CBK287527],95.5868
8,O=[N+]([O-])c1cc(S(=O)(=O)Nc2nnc(C(F)(F)F)s2)ccc1Cl [CBK062021],93.6424
9,CCCNC(=O)Cn1nc(C)n2c(cc3sccc32)c1=O [CBK284020],104.63
10,CCN1CCN(c2c(Cl)cccc2NC(=O)CSc2ccc(Cl)cc2)CC1 [CBK267606],79.2413
11,COC(=O)c1cccc(C(=O)Nc2ncc(-c3ccccc3)s2)c1 [CBK298294],91.9562
12,Cc1[nH]c2cc(C(=O)O)ccc2c1CC(=O)O [CBK269955],93.6155
13,O=c1c(-c2ccccc2)c(C(F)(F)F)oc2c(CN3CCN(Cc4ccccc4)CC3)c(O)ccc12 [CBK265808],81.2068
14,Cc1cc2ccnc(Cl)c2n1CC1(O)CC2CCC(C1)N2 (centres unmarked) [CBK284980],110.867
15,O=C(NS(=O)(=O)c1cccc(-c2nnco2)c1)C1C2C3CCC(C3)C12 (centres unmarked) [CBK306488],52.0709
16,CNCC(=O)N1CCC2(CCCC[C@H]3CN(C(C)=O)CC[C@H]3NC(=O)CNC2=O)CC1 [CBK292181],87.4463
17,NC(=O)COc1ccc(CNc2ccc(Oc3ccccc3)cc2)cc1Cl [CBK269584],83.2998
18,CC1CN(S(=O)(=O)c2ccc(NC(=O)c3nc(SCc4ccccc4)ncc3Cl)cc2)CC(C)O1 (centres unmarked) [CBK268930],59.0233
19,CCC(=O)Nc1nc(-c2ccc(C(=O)OC)cc2)nc2c1c(=O)oc1ccccc12 [CBK268449],94.6254
20,COc1ccc(N2CCN(c3c(C)c(C)nc4cc(-c5nccn5C)nn34)CC2)cc1 [CBK286178],94.7825
21,COc1ccc([C@H]2CN(C(=O)c3ccccc3)[C@@H]3CCN(Cc4cccc(F)c4)C[C@H]23)cc1 [CBK285584],86.995
22,Cn1ccnc1CN1CCCN(C(=O)c2cccc(C#N)c2)CC1 [CBK303998],45.1029
23,O=C(NCc1cccc(C(F)(F)F)c1)c1cnc(-c2ccccc2)c(-c2ccco2)c1 [CBK036667],114.549
24,O=C(O)COc1ccccc1/C=N\N1CCN(c2ccccn2)CC1 [CBK262916],103.582
25,O=C(c1cccc(F)c1)N1CCC(O)(c2cccnc2F)CC1 [CBK284357],75.3805
26,COc1ccc2c(c1)CCN=C2C[C@H]1CN(C(=O)C(C)(C)C)CC[C@H]1CC(=O)O [CBK289155],108.856
27,CCN1CCN(C(=O)C2CC=CCC2C(=O)O)CC1 (centres unmarked) [CBK270295],72.3876

row,SMILES,% of control remaining
1,C(=N\N1CCOCC1)/c1cccs1 [CBK027942],103.167
2,CCn1c2ccccc2c2cc(CN3CCN(c4ccccc4OC)CC3)ccc21 [CBK261579],91.7133
3,Cc1c(Cl)cccc1NC(=O)CSCc1cc(O)[nH]n1 [CBK268199],106.992
4,COc1ccc(C(=O)N2CCC3(CCCN(C(=O)Cn4cc(C)c(=O)[nH]c4=O)C3)C2)cc1OC (centres unmarked) [CBK137085],84.8207
5,O=C(CN(c1ccc(Cl)cc1)S(=O)(=O)c1ccccc1)Nc1ccc2ccccc2c1 [CBK263776],75.1217
6,CN1CCN(C(=O)C2CCN(S(=O)(=O)c3ccc4ccccc4c3)CC2)CC1 [CBK269504],40.9707
7,Cc1ncsc1CCOc1cc(N2CCCC2)ncn1 [CBK115895],95.9625
8,O=C(C1CCCCC1)N1CCC(c2nnc3n2CCCCC3)CC1 [CBK284613],119.085
9,N#Cc1c(SCC(=O)N2CCc3ccccc3C2)nsc1SCC(=O)N1CCc2ccccc2C1 [CBK267453],86.5031
10,O=C(CSc1ncnc2ccccc12)Nc1nc2ccccc2s1 [CBK287510],88.2016
11,CC1CCN(S(=O)(=O)c2ccc(NC(=O)c3ccc(Br)o3)cc2)CC1 [CBK264536],95.3931
12,CCNc1nc(-c2ccc3[nH]ccc3c2)cn2ccnc12 [CBK038002],109.809
13,O=C(O)C1CCCN(C(=O)COc2cc3oc(=O)cc(-c4ccccc4)c3cc2Cl)C1 (centres unmarked) [CBK286753],83.6401
14,Fc1ccc2[nH]c3c(c2c1)CCN1C(c2cccnc2)N2CCC31CC2 (centres unmarked) [CBK284436],54.8211
15,CCN(Cc1ccccc1)C(=O)Nc1ccc2[nH]ccc2c1 [CBK155229],65.2629
16,O=C(NCCN1CCOCC1)c1cc(Br)cnc1N1CCOCC1 [CBK076202],100.058
17,COCCNS(=O)(=O)c1ccc(C)cc1 [CBK002332],54.5389
18,COc1cc(CCN2CCC(c3nc(-c4ccccc4)c4ccccn34)CC2)cc(OC)c1OC [CBK035278],79.0658
19,CC(C)c1nc(CCN(C)C(=O)NCc2cnc3cnccn23)no1 [CBK307666],96.6
20,COc1ccc2[nH]cc(C(C(=O)O)N3CCCCC3)c2c1 (centres unmarked) [CBK286676],71.4394
21,CCCCOc1ccc(C(=O)OC(Cc2cccc3ccccc23)CN(CC)CC)cc1 (centres unmarked) [CBK011965C],30.6416
22,CC(C)Nc1nc2cc(Cl)c(Cl)cc2nc1OCCCN(C)C [CBK115282],95.5282
23,Cc1ccc(S(=O)(=O)N(CC(O)CN2CCCCC2)c2ccccc2)cc1 (centres unmarked) [CBK263570],42.8678
24,COCCCNC(=O)c1cnn2c(C)c(Cc3ccccc3)c(C)nc12 [CBK162216],66.545
25,COc1cc(CNC(=O)c2ccc(O)nc2)ccc1OCc1ccncc1 [CBK298297],83.3164
26,O=C(NCc1ccc(F)cc1)c1cc(Br)cnc1NCc1cccnc1 [CBK076405],78.0944

# Reference: article PMC12040169 (PLOS Biology, 2025)
